Source: the RNAGym collection of RNA variant scans (doi:10.7554/elife.90254)
Read counts are not given, so values of variants with three or more changes are uncertain.

B1: OR4K15 (parent)
chain: GUUAACGGUCAUAGGCCAUGGAAACUAGGAGCACCAUUUCGCUGCCAGUGAAGAAAUGAACAAAGAAAAUCUGGGCCAGGCAGGCAUCAAAAGAAAUAGUCUUGCGCUCAACCAGAAAGUCUGUAAUCAUUUUAAGGGUA

Variants of: B1
Test: self-cleavage, relative activity (ratio to wild type); higher = more cleavage; in vitro, sequencing; the parent is a self-cleaving ribozyme

Row | Variant | self-cleavage
1 | U26A U103C U132C | 1.03
2 | A55G U102C A140G | 1.47
3 | A51G U100C A111G | 0.01
4 | A91G U108C U130C | 0.01
5 | U57C A82G U102C | 0.88
6 | C32U A110G A129G | 0.09
7 | A92G U130C U133C | 1.6
8 | A11G A56G A66G U70C A118G A135C | 0.19
9 | U19A A36G A47G A92G | 0.73
10 | U38C U43A A51G A68C C101U U102C A135U | 1.48
11 | U9G A95G U103C A126G | 0.18
12 | U26A A36G A91G A117G U131C | 0.68
13 | C17U A117G A118G | 1.19
14 | A55G G58U A62U A114C | 0.05
15 | U37C U57C G65A U108C | 0.01
16 | A30G A96G A125G U139C | 0.64
17 | A24U A90G A110U | 0.41
18 | U49C U122C U130C | 0.47
19 | G41A G44U A47G A54C A60G | 1.06
20 | A30G U49C A110C | 0.32
21 | A62U U122C A135G | 1.2
22 | A69G U102C A126G | 0.88
23 | U9A G80A A116G | 0.11
24 | A18U U37C A68G | 1.34

Row | Variant | self-cleavage
25 | A5C U49A A94U A129U | 0.83
26 | U70C A94U U102A U127C | 0.08
27 | U39C A64G G74A U132C | 0.28
28 | U37C A55C A67G A126U | 1.43
29 | U2C U12A U19G G28A G74A A89G | 0.36
30 | U2C A24C A59U A82G A118G U131C | 0.06
31 | A52G U87C A126G | 0.65
32 | U87C A89U A91G A96G | 1.52
33 | A54G U108C A116G | 0.02
34 | U39G A54U A90G | 1.1
35 | A52G A54G A89G A118G | 1.01
36 | A30G A55C A59G C77U U132C | 1.27
37 | A47G A82U A92G | 0.22
38 | A23U A90G G115A | 0.02
39 | A66G A82G U122C | 0.64
40 | A23G A89G A94G | 1.41
41 | A96G U100C A135U | 2.31
42 | A60G A67G A114U | 0.06
43 | U87C A118G U122C | 0.75
44 | U9C U38C U127C | 1.06
45 | U19C A62G U132C | 1.05
46 | U38A C77U A82U | 0.34
47 | G7U U26C A36G A56G U72A | 0.21
48 | A18C U38G A111G A117G U132A | 0.01

Row | Variant | self-cleavage
49 | A23G U39C C45U | 1.22
50 | A5G U9C A78U A126G | 0.3
51 | U37C A47U A90G A95G | 0.28
52 | A22G U49C A67G | 0.57
53 | U9C A11U C101U | 0.36
54 | A60G U100C U132G | 1.52
55 | U19C U108A A111G | 0.02
56 | A22C A23U A118U | 0.94
57 | A23G A55U A111G | 0.08
58 | A13G A22G U103C | 1.24
59 | A24U A82G C121A | 0.05
60 | A24G A30G U43C A62G U72C | 0.42
61 | U9C U19A A110G U120C | 0.1
62 | U39C A47U A125G | 0.32
63 | A36U A60G A95G A118G | 1.08
64 | U49A A63G U70C G106A U124C | 0.01
65 | A13G A68G A78G A126G | 0.25
66 | A23U A69G A90G | 1.12
67 | U9C A52U A54C | 0.94
68 | A5G A59G A60G A140G | 1.21
69 | A89G U97G U103A U124C | 0.14
70 | U49C A54G A95G A110G | 0.16
71 | A54G A63U A68G A117U A126G U139C | 0.24
72 | A63G U70A U131C | 1.14

Row | Variant | self-cleavage
73 | A5C A55G A68G A86C | 0.77
74 | A56G U97C C107A A118G | 0.01
75 | U43G A52G A86G | 0.69
76 | U2C A60G A78G | 0.33
77 | A23G A66G A140G | 1.21
78 | A18U A92G A126U | 0.65
79 | A51U A110G U124C | 0.09
80 | U2C A4G U37C A95G U122C | 1.32
81 | A60G A82U A92G U102C | 0.18
82 | A54G A67U A126G A140U | 1.28
83 | A30C A67G A110G | 0.12
84 | A54G A66G A67G A78G | 0.1
85 | U39C A68G U103A | 0.71
86 | A22G U100A A111G | 0.03
87 | A54G A63G A91G A118U | 0.83
88 | A55G A62G A86G A98U A111G U132A A135G | 0
89 | U39A C71U U72C U108A U124A U131C | 0
90 | U97G U124C A125G | 0.7
91 | A47U A91G A96G | 1.14
92 | U2C U9C C40U U43A A64G A116U | 0.5
93 | A55G A62G A91G | 0.78
94 | U39C U87C A116G A129G | 0.4
95 | A13C A22G A56U U57C A90G | 1.39
96 | A13U U37C U38C A116G U139C | 0.79

Row | Variant | self-cleavage
97 | A64G A66G A116G | 0.55
98 | A52U A59G U87A | 1.58
99 | A68G A94G U102C | 1.11
100 | A63G A90G A95G A117G | 2.88
101 | U9C A118G G136A U139C | 1.67
102 | G7U A11G U39C A110U | 0.77
103 | A27G G53U A64G U102C A111G | 0.02
104 | U43C A47U A82G U120C | 0.11
105 | A30G U39A A62C U70C G74A U100A | 0.09
106 | U2C A18U A60G | 0.66
107 | U26C A94G U120A U133C | 1.94
108 | A11U A117G U130C | 1.34
109 | G31U U97C U102G | 0.47
110 | U12C A90G U103A G104A | 0.02
111 | A82U G84A A98U A110U | 0.93
112 | A5G A52G A111U | 0.2
113 | U9C A51U A95G U103C | 1.32
114 | A22G U43A A64G U120C | 1.88
115 | U2C U9C A67G A78G | 0.42
116 | U12C G99U U132A | 0.34
117 | A69U A96U U124C | 2.04
118 | A54G A55G U124C | 0.85
119 | U3C U103C A116U U130C | 0.15
120 | C34U A52G A54G | 1.38

Row | Variant | self-cleavage
121 | A5G A55G A59G A92G A94G | 1.67
122 | A55G U72C U108C | 0.01
123 | U12A A56G U103A U120C U133C | 0.81
124 | A23G U38A A116G | 0.94
125 | A5U G21A A66G | 1.87
126 | A22G U39C U108C A125G | 0
127 | A59G U103C A134G | 0.61
128 | A114U U127C U131G | 0.01
129 | C16U A47C A64G A66G U122C | 1.06
130 | U38C U43C U87C A92G | 1.09
131 | U26A A27G A64C | 1.07
132 | A18C A55G A60G | 0.89
133 | A5G U38C G44A A69G | 1.37
134 | A86G A117G U124A | 1.02
135 | A52U A54G A55U A64G A86C | 0.86
136 | A22G U72A A135G | 0.18
137 | U2C A24C U102C | 2.8
138 | U12A A36G A111C | 0.07
139 | U19A A55U A94G | 0.59
140 | G106C A117G A118U U122A U127C A135G | 0
141 | G53A A95G C101U | 1.28
142 | A54G A86U A94G U127C | 1
143 | A33G U38C A63U | 1.26
144 | A52G A68U A116G U122C | 0.98

Row | Variant | self-cleavage
145 | A51G A52G A82G | 0.59
146 | A11G A68G A116G | 0.74
147 | A33G A68G A82U | 0.09
148 | A22G U100C A110U | 1.11
149 | A90G A110U U120A | 1.31
150 | U2A U12A U49A U103C | 0.95
151 | A51G A54U U127C | 1.78
152 | A18G U43C A68G | 1.24
153 | U49G U100C A110C | 0.62
154 | A92G U97G U102A U103G | 0.09
155 | A18U A54G A55U U122C | 0.94
156 | G83U A89G U127C | 0.56
157 | U37C A66G U103C | 1.32
158 | A18U A24G U103C | 1.16
159 | A36U U57C A92G A125G | 0.64
160 | U9C C77A A92G | 0.83
161 | A36G C85U G136A | 1.28
162 | U49C U87C A117G | 1.72
163 | A4G U19C U43A A86G | 1.02
164 | U9C A11G U72C | 0.34
165 | A55G A64G A118G | 0.82
166 | U39A A95G U122C U139C | 2.15
167 | U43A A59G A89U A92G A94G | 1.24
